Measurements published in PubChem BioAssay AID1794842 (National Center for Advancing Translational Sciences (NCATS), 2023).
Out of some 2,800 compounds screened, fewer than 10 were called active. Calls follow the shape of the dose curve; as a rule, active = well fitted curve in the direction sought with a large enough effect; inconclusive = small, poorly fitted or top-dose-only effect, or another doubt; inactive = no such curve, though single readings can be large or run the other way. Some of the results follow.

biological target: Metallo-beta-lactamase type 2 (Klebsiella pneumoniae) (UniProt C7C422); test: qHTS to identify inhibitors of the New Delhi Metallo-beta-lactamase (NDM): Meropenem screen against the machine-based learning selections.; also: % of control where 0% means no effect; settings: Purified NDM-1, meropenem hydrolysis, absorbance 300 nm; at 38.4 µM (top of the series) unless noted
Sequence of UniProt C7C422 (C7C422 whole entry, looked up): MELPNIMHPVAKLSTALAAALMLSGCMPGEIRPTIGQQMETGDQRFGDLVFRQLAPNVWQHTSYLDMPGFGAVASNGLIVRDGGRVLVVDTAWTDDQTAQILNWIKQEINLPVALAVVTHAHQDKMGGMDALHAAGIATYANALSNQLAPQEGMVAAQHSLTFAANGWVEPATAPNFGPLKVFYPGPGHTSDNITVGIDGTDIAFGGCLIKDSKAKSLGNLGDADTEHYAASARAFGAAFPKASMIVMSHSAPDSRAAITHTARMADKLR
Procedure, shortened: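 Hydrolysis by 2 nM NDM-1 was followed by absorbance after >30 min compound preincubation in HEPES pH 7.0 buffer with 1 uM Zn2SO4. For nitrocefin (16.7 uM, 15 min, 485 nm) and meropenem (50 uM, 30 min, 300 nm), each substrate ran on separate plates.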

Activity change, negative = inhibition, inactive:
CN1CCN(c2ccc(C(=O)N[C@H](c3ccccn3)C3CC(O)C3)cc2)CC1 (stereo not given in full) 4.37%
CCO[C@H]1CN(C(=O)c2cccnc2SCCc2ccccc2)C[C@@H]1O 2.44%
CCCNC(=O)NC[C@H]1O[C@@H]2C[C@@H](CC(=O)N3CCC(F)(F)C3)O[C@@H]2[C@@H]1O -1.26% [at 57.5 µM]
Clc1ccc(Cn2ccnc2-c2cc3n(n2)CCCNC3)cc1Cl 42.3%
O=C(Nc1cccc(-c2nnc3n2CCCC3)c1)c1ccc[nH]c1=O -0.28%
COc1ccc(NC(=O)c2ccnc(-c3nnc4ccc(Nc5ccccc5)nn34)c2)cn1 10.9% [at 57.5 µM]
Cc1ccccc1-c1nccn2c(C3CN(Cc4ccc(O)cc4)C3)ncc12 -0.872% [at 57.5 µM]
CC(C)NC(=O)N1CCOc2ccc(CCC(N)=O)cc2C1 -1.46%
Cc1ccc(S(=O)(=O)Nc2ccc(C)n(CC(=O)NC(C)c3ccccc3)c2=O)cc1 (stereo not given) 39.1%
O=C(O)c1cc(-c2ccc3cc[nH]c3c2)cc(S(=O)(=O)N2CCSCC2)c1 21.7%
O=C(NC[C@H]1O[C@@H](CO)[C@@H](O)[C@H]1N1CCN(c2cccc(C(F)(F)F)c2)CC1)Nc1ccc(F)cc1F 61.8%
CN(C)c1cccc(-c2cnc3[nH]cc(CC(=O)NCc4cccnc4)c3c2)c1 10.2% [at 57.5 µM]
c1ccc(CNc2cc3c(cn2)CN(Cc2cccnc2)CCN3)cc1 -1.61% [at 57.5 µM]
CC(C)C[C@@H]1N[C@H](C(=O)N(C)CCC#N)Cc2c[nH]c3cccc1c23 3.98% [at 57.5 µM]
O=C(NCc1nnnn1-c1ccccc1)C1NCCc2[nH]cnc21 (stereo not given) 28.7%
O=C(c1cccc(F)c1)N1CCCC2(C1)NC(=O)N(Cc1ccc(Cl)cc1)C2=O (stereo not given) 0.583%
COCc1ccc(C(=O)N2CC[C@](C)(O)[C@H](C)C2)s1 -0.373%
CCS(=O)(=O)N1CCOC[C@H](Oc2ccc(C(F)(F)F)cn2)C1 0.519% [at 57.5 µM]
Cc1ccnn1CCC(=O)Nc1nn(C)c2cccc(N3CCOCC3)c12 6.17%
CC[C@H]1CN(C(=O)NC2CCCCC2)CC[C@H]1CC(=O)Nc1ccccc1 -2.52% [at 57.5 µM]
c1ccc(OCCNc2nc(-c3cccnc3)nc3c2CCNCC3)cc1 -2.67%
CCN(Cc1ccc(C)o1)C(=O)c1ccc2nc(-c3ccc(F)cc3)cn2c1 0.14%
CC(C)C[C@@H]1N[C@H](C(=O)NCCOc2ccccc2)Cc2c[nH]c3cccc1c23 6.71% [at 57.5 µM]
CC(C)(C)c1ccc(C(=O)Nc2ccc(C(O)[C@H]3COCC(=O)N3)cc2)cc1 (stereo not given in full) -0.0206% [at 57.5 µM]
OC(c1ccccc1)c1nc(Nc2ccc(C(F)(F)F)cc2)n[nH]1 (stereo not given) 2.15% [at 57.5 µM]
CCNC(=O)N[C@H]1[C@H](O)[C@@H](N(C)CCN(C)C)[C@@H]2OC[C@H]1O2 7.92% [at 57.5 µM]
COC(=O)N1CCCCC(NC(=O)CCCc2nc(-c3ccccc3C)no2)C1 (stereo not given) 0.122%
CCC(C)NC(=O)CC1Sc2ncccc2N(C)C1=O (stereo not given) 4.3%
O=C(Nc1ccc(-c2nnc3n2CCCC3)cc1)C1CC1 -0.0277%
COc1ccccc1C(=O)Nc1ccnn1C1CCN(C(=O)[C@@H](N)CO)CC1 53.7%
COC(=O)c1[nH]nc2c1C(c1ccc(OC)c(OC)c1Cl)CC(=O)N2 (stereo not given) -0.0233%
NC(=O)[C@H](Cc1cccs1)NC(=O)C1=C[C@@H](NC(=O)c2ccc(F)c(Cl)c2)[C@@H](O)[C@H](O)C1 0.292%
N#Cc1cccc(-c2ccnc(N[C@H]3CO[C@H]4[C@@H]3OC[C@@H]4NC(=O)c3ccc(C(F)(F)F)cc3)n2)c1 -0.85%
Clc1cccnc1-c1cc(NCc2ccccn2)nc2[nH]ccc12 -1.51%
O=C(O)C[C@@H]1CCN(C(=O)c2ccco2)C[C@@H]1CCN1CCOCC1 23.8% [at 57.5 µM]
COc1ccc(CN2C(=O)CO[C@H](c3ccc(NC(=O)c4ccccc4OC)cc3)[C@H]2CO)cc1 2.01%
CCS(=O)(=O)c1ccc2oc([C@H]3CCN(Cc4c[nH]c5ccccc45)C3)nc2c1 3.33% [at 57.5 µM]
CN1CCC(NC(=O)Cc2c[nH]c3ncc(-c4ccccc4)cc23)CC1 -1.82% [at 57.5 µM]
C=CCNC(=O)[C@@H]1Cc2cn(Cc3ccncc3)c3cccc(c23)[C@H](CC(C)C)N1 5.07% [at 57.5 µM]
CC(C)CCCC1CN(C(=O)c2c(O)cccc2O)CCO1 (stereo not given) 1.74%
Cc1nccn1CC(=O)N1CCC2(CC1)CNC(C(=O)O)C2 (stereo not given) 34.4%
O=C(Cc1c[nH]c2ncc(-c3ccncc3)cc12)NCc1cccnc1 4.44% [at 57.5 µM]
Fc1cccc(Nc2cnc3ccc(-c4ccccc4)nn23)c1 11.1% [at 57.5 µM]
CC1(CNCc2ccccc2)COc2ccc(C(=O)Nc3cccnc3)cc2N1 (stereo not given) 3.29% [at 57.5 µM]
COc1ccc(CN2CCOC[C@H](OC)C2)cn1 0.0913% [at 76.7 µM]
Cc1ccsc1-c1[nH]nc2ncc(-c3cccc(O)c3)nc12 1.53% [at 57.5 µM]
FC(F)(F)Oc1ccc(-c2cnc([C@@H]3COCCN3Cc3ccncc3)[nH]2)cc1 -3.64% [at 57.5 µM]
N[C@@H](Cc1cnc[nH]1)C(=O)N1CCC2(CC1)CN(CCOc1ccccc1)C(=O)O2 16.5%
NC(=O)C1(N2CCCCC2)CCN(Cc2cc3n(n2)CCNC3)CC1 58.6%
Cc1cc(-c2ccccc2)nc(CN2CC[C@@](O)(C3CCC3)[C@H](C)C2)n1 1.38%
